Whole data set: some 33,000 sequences, median “E-score (-0.5 to 0.5)” near -0.054, cut for the highest 2% near 0.35. The list shows a part of the results.
What follows are sequences tested against T1, Stb5 (UniProt P38699) (assay: PBM E-score (8-mer binding enrichment) (E-score (-0.5 to 0.5)); higher = stronger / more preferred TF binding; most listed sequences are background and not binding sites). Settings: protein concentration: 200 nM; construct: GST-full length.
T1 sequence: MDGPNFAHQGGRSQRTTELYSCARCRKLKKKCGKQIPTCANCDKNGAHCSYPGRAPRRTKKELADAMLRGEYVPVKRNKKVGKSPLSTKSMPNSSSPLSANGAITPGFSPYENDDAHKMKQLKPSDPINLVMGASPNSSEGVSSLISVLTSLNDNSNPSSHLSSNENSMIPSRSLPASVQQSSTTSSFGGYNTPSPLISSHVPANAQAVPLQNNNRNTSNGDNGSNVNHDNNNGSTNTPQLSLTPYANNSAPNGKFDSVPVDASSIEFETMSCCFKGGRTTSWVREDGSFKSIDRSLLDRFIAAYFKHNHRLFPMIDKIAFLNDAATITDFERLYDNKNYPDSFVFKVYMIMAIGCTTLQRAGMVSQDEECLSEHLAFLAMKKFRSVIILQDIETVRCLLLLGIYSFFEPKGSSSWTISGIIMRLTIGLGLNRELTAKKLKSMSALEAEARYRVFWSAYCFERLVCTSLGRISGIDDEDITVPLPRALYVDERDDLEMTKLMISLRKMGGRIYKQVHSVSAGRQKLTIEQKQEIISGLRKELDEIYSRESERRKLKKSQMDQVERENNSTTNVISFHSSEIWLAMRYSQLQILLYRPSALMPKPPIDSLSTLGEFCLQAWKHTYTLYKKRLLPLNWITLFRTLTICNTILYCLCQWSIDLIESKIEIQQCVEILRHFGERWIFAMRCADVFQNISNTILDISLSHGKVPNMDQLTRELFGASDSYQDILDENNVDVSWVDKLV
Method: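 Universal 'all 10-mer' protein binding microarrays (Agilent AMADID 015681) probed with GST-tagged S. cerevisiae TFs (full-length or DBD) made by in vitro transcription/translation (PURExpress), about 100-200 nM. Bound TF was detected with fluorescent anti-GST. Each ungapped 8-mer (which stands for itself and its reverse complement) is scored by the PBM enrichment score (E-score), a modified Wilcoxon-Mann-Whitney statistic from -0.5 to +0.5, computed with the Universal PBM Analysis Suite. Scale: above 0.35 generally sequence-specific binding.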

Sequence | PBM E-score
CTTATATA | 0.0596
GCGGCTTA | 0.165
GTCAAATA | -0.0305
GCGTACAA | -0.226
CACGGCTC | 0.0891
ACTATGCG | 0.00945
CTCGCATC | -0.124
AATGGTCT | -0.118
ATGACCTC | -0.132
AGCATGAA | -0.195
GGGCAAGA | 0.0117
ACTCAGCG | -0.056
GATTAGAA | -0.0718
CTTCAGAC | -0.125
CTATGTTA | 0.122
CATGTACA | -0.155
CCGTTTAC | 0.082
AAGTGTGC | -0.259
CACTACCA | -0.00408
GCTGTTAC | 0.183
AACCAACT | -0.218
GTAGAGAC | -0.229

Sequence | PBM E-score
ATTTGGTC | -0.0368
ACATAACC | 0.116
ACGCATCC | -0.104
CAGCGTGG | -0.165
CCTTTTGA | -0.106
GCCGAGAA | 0.117
AGTTTCTA | 0.033
CTTTCAGC | 0.119
CGGCTATA | 0.367
AACCCCTT | 0.0178
TCGATTAA | -0.242
AGTGCGCC | 0.028
CAAGCACC | 0.0493
GACTCGAC | -0.203
CTTACCTA | -0.28
CTCCAAAA | -0.1
GCCTGGTA | -0.0959
ACCACACG | -0.18
CATGGAGG | -0.242
CTAGCGCC | 0.172
GGTCTAAC | 0.0664
CCGAGTCG | 0.168

Sequence | PBM E-score
TAACGGCA | 0.22
AACCTGCG | 0.05
ACACTCAC | -0.0181
ACTCTTAA | -0.0596
ACTCATGC | -0.117
CAGCCAAA | -0.131
CGCTTTCC | 0.0771
AAGTGGTG | -0.099
CCGTAAGC | 0.139
ACAAATCC | 0.0856
GGGTCATA | -0.00196
AACACGGG | 0.0484
GTGGTCGA | -0.254
GGCGGCTA | 0.12
CCTCGCCA | -0.191
AGATCCTA | -0.266
AGACGCAC | 0.0631
CCACGTGG | -0.282
CACCTTGA | 0.0193
ACCCACGC | -0.155
TTCGAGAA | -0.055
CCACGTGC | -0.0774

Sequence | PBM E-score
GACTGGCC | -0.0285
GCATCAAA | -0.0923
AAGACTAC | -0.0698
CCCACTAC | -0.219
ATAGACTA | -0.232
ATCCAAGC | -0.165
CATCTACA | -0.188
AAGCAAGT | -0.123
CGAATGCC | 0.0928
CCTCATCG | 0.00811
GAGGTAGA | -0.0408
CTTTAGTC | 0.107
ATGCCGCG | 0.319
CTAGACTA | -0.136
CTTAAACA | 0.161
CTAGGGGC | -0.243
GCCAGTAC | -0.0327
GACTGGAC | -0.142
ATCGAGGG | -0.142
ACTACTGG | -0.296

Source: the supplement of paper PMC3334620
